Reference: the supplement of paper PMC10126150
Sequences with one replicate were seen in a single cluster, so their values are uncertain.

System: ATP
Assay: switch fluorescence ratio, 500 uM ATP over buffer (Cy3 cluster intensity, sum of 5 cycles each) (fold (ratio)); higher = stronger signal-on switching upon ATP binding; sequences stand for … in TCGTCGGCAGCGTCAGATGTGTATAAGAGACAGTTTTTTTTTTTTTTTTTTTTTTTTT…TC
Settings: aptamer strand: ATP DNA aptamer (quencher-CACCTGGGGGAGTATTGCGGAGGAAGG + anchor), 100 nM annealed; ATP concentration: 500 uM; one replicate
Summary of the method: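 The quencher-labelled ATP aptamer, at 100 nM, was annealed to Cy3-labelled switching-strand clusters on a modified Illumina MiSeq flow-cell. The clusters were imaged in selection buffer, then after 15 min with 500 uM ATP at 22 °C, and this buffer/ATP cycle ran five times with NaOH stripping and re-annealing between runs. Per-cluster fluorescence ratios, summed target-cycle over summed buffer-cycle Cy3 intensity, were averaged per switch-domain sequence. Clusters outside 100-1000 RFU were excluded.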
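Also: ATP exposure 15 min at 22 °C before imaging.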

Sequence | switch fluorescence ratio
GTGATGATAG | 0.932
TTCAGCCCGT | 1.01
ACTGCTTGTA | 0.989
CATGAAAAGC | 1.1
AGACTCGGGG | 0.981
TTCCGATCAG | 2.05
CTTTGCGTAT | 1
TTCTGAGGTT | 0.994
ATAGGGCGGA | 1.02
AAACAGATGG | 0.976
GATTGGCCCT | 1.05
CCTCCTTAAG | 1.91
TCGGGGTCTC | 1.06
TGGACACAGG | 1.01
TACCTCCAAA | 1.36
AGACGTAGGT | 0.953
ATGTTTCCCG | 0.984
CGCCTCGTGT | 0.982
AATCATGCAC | 1.12
AATAGCCGTG | 0.99
TAACACTTAG | 1.07
GGCATTTATG | 1.04
TTGCGATCGC | 0.95
CTTAGACCGC | 1.11
GGCACCAGCG | 1.04
TGATGAGCAC | 1.04

Sequence | switch fluorescence ratio
AAGCTTAAGT | 0.988
ATTTGAACTA | 0.985
ATCCGCTCTG | 1.14
GACACCATTT | 1.01
CATTAGGACG | 0.981
GGCTGCCGC | 0.966
TAAATTATAG | 0.958
ACTGCCATTA | 1.19
TATTACGTTC | 1.04
TATTCTAACA | 1.03
TTGAAAAGTA | 0.979
TCATAACGGA | 0.992
GGTCACGTCA | 1.01
GAGTAACCGC | 1.03
TGAACATTTC | 1.13
ATGTCTCGCC | 0.959
ACAGAGTCTT | 0.996
GTGTTGCGTA | 0.945
TAGTCGGGTG | 1.07
TTCGACAGTT | 1.01
ATGGTGCCTG | 1.03
CTGAACCTAC | 1.49
CCTTGGACTG | 1.01
AATGCTCCTC | 1.25
GCAAAGTTG | 0.981
CTATTGCGTG | 1.01

Sequence | switch fluorescence ratio
CACTATACAA | 1.29
CCGGCATTCG | 1.16
GACTTGGCCC | 0.998
GCGCCCAATT | 1.16
TCGCTATGGA | 1
ACGCAGCTTC | 2.74
TGAGGCTA | 0.97
AATCGCACTC | 1.56
TAACATCCTC | 1.07
ACGCTGGTTG | 1.04
CCGCTACCCC | 1.07
AATTAAAGGC | 1.25
GGGGAACGCG | 1.13
AAAGTAGT | 0.992
TTAAGGCATA | 1.02
TGGGTCGGG | 0.953
GGCGACGCAG | 0.973
AGCAGTATTG | 1
AATTGACCAA | 1.01
GCCCACAGCA | 0.998
AAATTAGCAC | 1.02
TCTTTTTAAT | 1.1
TATTTTTCCT | 1.04
AGTGAGTGAG | 1.03
CTACGTGCA | 1.06
AGTAGAGTCA | 1.01

Sequence | switch fluorescence ratio
TGTAATCG | 1.01
AGAATAGAGC | 0.956
GCTTCCATGA | 0.982
AAATCCCACC | 1.07
TTAGTTGAAA | 0.985
CGATTCTAGC | 1.03
GGTTCTAATT | 0.931
TGGCCGCAAG | 2.01
GTCGCAGTTC | 1.17
GACAATAAAG | 1
TGGATTCGTA | 1.06
GATGCCGCCC | 1.16
TTCTCAAGTC | 0.985
TATGGCGCCG | 0.918
CATAGTGGCG | 0.966
TCGCTGCCCA | 0.993
TCGTTAAGAT | 0.976
AGGTTTGTAT | 1.01
AATCTGCTAG | 1.08
AGAGTCATAG | 0.985
CAGGTTGGCT | 1.02
ATGTAAAGAA | 1.03
TGCGGGTCT | 0.991
ATTAACTAAT | 1.02
AGTGTTATAA | 0.977
GAATCAGCTT | 0.982

Sequence | switch fluorescence ratio
TAGATGTG | 1.01
CCTTTGGGAT | 1
TGCACGCAAG | 1.17
AGCAAAACG | 1.1
AGACGGGCGA | 0.988
GAAAGCGGGA | 1.05
CATCTTTTCA | 0.969
TCGGTCGGCG | 0.967
TTTATCGTGA | 1.07
TGGTCCTGTT | 0.984
CGTGAGGTCT | 1.09
TAGTTTCATT | 1
CTACGCAGGG | 1.32
GGTAGTTAGA | 0.985
GCACTAAGAC | 1.13
TTTGGACGTT | 0.98
CGGTCAGTCG | 1
AGTATTTGTC | 1.08
AAATTAAACC | 1.06
ACGTTCAAGT | 1.03
CACAACCGGA | 0.977
GGCAACACTG | 0.999
TAGTAACTAG | 0.978
CGATTGGCAG | 0.989
CTTTGGATT | 1.03
CGGGTTGCTC | 1.01

Sequence | switch fluorescence ratio
GCAATCTGTT | 1.06
TACTGCTCGA | 1.04
ATTCTCCC | 1.1
GGGTGCAGGA | 0.898
TGACCATGGT | 1.01
CCATTCCCTT | 0.994
ACACATTTGT | 1.04
CATTGCAGCT | 0.992
AGTAGCTTC | 1.03
CATACAGAAA | 0.982
ACGGGGAACG | 1.06
CTGGGGACGG | 0.973
TGTCCGGGGT | 1.04
ATAAAATTAC | 0.983
GCTTTTTTC | 0.973
GGCTCATTAG | 0.968
GGCTTTATGC | 0.97
ATTCAACAGA | 0.957
ACTTGTGGTT | 0.95
GTTAGGGCGC | 0.988
ACTCAATGCC | 1.08
GCAACTAGA | 0.971
ACAGTGTGTA | 1.01
GGAGCAGATG | 1.4
TGTCCATGGA | 1.07
CTGGGCAGCC | 0.995

Sequence | switch fluorescence ratio
TGACTCTTCT | 0.976
TCATAGTTG | 1.02
ATATATTATG | 0.999
AGGTTGCGTG | 0.973
AGAGCGCATA | 1.16
CGTCTAAAGA | 1.04
TTGTGTAA | 0.962
TATGGAAAAA | 0.962
AGACCTTTTT | 1.02
ACTCATCGTC | 1.06
ATTATGGTAG | 1.01
GGGTACACGC | 0.984
CCGGTTGTA | 1.11
GACGTCAACG | 0.969
GTGGATCGCG | 0.959
TTATCCTACA | 1.03
CCATTCTTTA | 0.974
GTAGATAAAC | 1.04
AGCCGAGAC | 1.12
AAGAGTGTTC | 0.991
TTATGAGCCC | 0.974
AGTGTTGCCA | 0.984
GCACCTAATC | 1.03
AATAGTTGTT | 0.979
TGCTATTAAC | 1.03
CGGGGATAA | 1.03

Sequence | switch fluorescence ratio
CGGTAGGCGT | 0.959
AGCAAGAGGG | 1.09
ACAAAAAAG | 1.07
GAGATTAGAA | 0.997
AAATGAGGTA | 0.985
GTCGTCAGGA | 1.01
CTGACAGCAG | 1.38
GTTTGAAGTG | 0.984
CGATTGGTTA | 1.03
TAAGTCGCT | 0.973
CCAGCCGCTA | 2.13
CTGTAGAGAT | 1.04
GCTTCCGGCG | 1.95
ACGTTCAATT | 1.03
TTGATCTCTA | 1.04
TTCCGCGCA | 3.74
TTTTGCGTAA | 0.994
GCCGAAAATT | 0.965
CAGCTTATAA | 1.12
